From the supplement of paper PMC6206098
± gives the uncertainty stated by the source. Shown are siRNA guide strands that differ only in the seed, positions 2 to 7.

How the values were obtained:
3LL = test: cell viability relative to siNT1 control; higher = less toxic; conditions: concentration: 10 nM; 96 h; Mus musculus;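 also: Luminescence-based viability of cells reverse transfected in 384-well plates with lipid-complexed siRNAs built on a non-toxic 19mer backbone whose passenger strand carries 2′-O-methyl groups at positions 1 and 2, triplicates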
H460 = test: cell viability relative to lipid-only control; HeyA8 human ovarian and H460 human lung cancer; M565 mouse liver and 3LL mouse lung cancer; siNT1 is a non-toxic control siRNA; higher = less toxic; conditions: concentration: 10 nM; 96 h; Homo sapiens
Procedure: (§1)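 Arrayed screen of 4096 siRNA duplexes, each carrying one of all possible 6mer seeds at guide-strand positions 2-7 in a fixed neutral 19mer scaffold (constant flanks: U at position 1, then ACAUGUAAACCA, plus a 3' AA overhang). The passenger strand is 2'-O-methylated at positions 1-2 so only the guide strand loads into RISC. Duplexes were reverse-transfected at 10 nM with RNAiMAX in triplicate in 384-well plates; viability was read by CellTiter-Glo ATP content 96 h after transfection. Values are % viability normalised to lipid-only wells (HeyA8, H460, M565) or to siNT1 (3LL).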

HeyA8 = test: as above; conditions: concentration: 10 nM; 96 h; Homo sapiens
Procedure: as §1

M565 = test: as above; conditions: concentration: 10 nM; 96 h; Mus musculus
Procedure: as §1
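For cell viability relative to lipid-only control in this document: reverse lipid transfection in 384-well plates, in triplicate, of duplexes on a non-toxic 19mer backbone with passenger strand 2′-O-methylated at positions 1 and 2, luminescence viability read-out.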

Sequence | cell viability (3LL) | cell viability (H460) | cell viability (HeyA8) | cell viability (M565)
UAUCCGAACAUGUAAACCAAA | 105 ± 3.9% | 100 ± 7.1% | 97 ± 3.2% | 97.2 ± 15%
UCACGUUACAUGUAAACCAAA | 99 ± 9.5% | 28.7 ± 2.3% | 86.7 ± 3.6% | 51.7 ± 3.1%
UAGGCUGACAUGUAAACCAAA | 79.4 ± 14% | 71.4 ± 3.4% | 33.6 ± 4.8% | 13.1 ± 1.4%
UGGAUGUACAUGUAAACCAAA | 20.7 ± 7.9% | 60.2 ± 13% | 14.5 ± 4.4% | 19 ± 5%
UCUAGAGACAUGUAAACCAAA | 97.8 ± 11% | 50 ± 3.2% | 93 ± 16% | 78.1 ± 2.3%
UGGCGUUACAUGUAAACCAAA | 78.3 ± 5.5% | 55.5 ± 4.8% | 18.7 ± 2% | 60.6 ± 15%
UGCCGAUACAUGUAAACCAAA | 78.7 ± 11% | 87 ± 4.2% | 46.2 ± 4.6% | 33.2 ± 3.8%
UAUAUAUACAUGUAAACCAAA | 42.5 ± 7.9% | 86.8 ± 14% | 91.7 ± 12% | 101 ± 6.3%
UUUUCUUACAUGUAAACCAAA | 108 ± 5.6% | 82.9 ± 10% | 91.7 ± 3% | 121 ± 7.9%
UGGGGAAACAUGUAAACCAAA | 55.9 ± 48% | 60 ± 4.2% | 20 ± 3.3% | 39.1 ± 5.4%
UGAGCAGACAUGUAAACCAAA | 43.2 ± 9.1% | 42.7 ± 7.7% | 41.3 ± 5.1% | 21.3 ± 4.7%
UACCCACACAUGUAAACCAAA | 53.6 ± 5.6% | 39.7 ± 3.2% | 53.1 ± 6% | 27 ± 4.8%
UAAGCCGACAUGUAAACCAAA | 78.1 ± 7.8% | 101 ± 11% | 81.1 ± 10% | 49.8 ± 7.8%
UAAAAUCACAUGUAAACCAAA | 88 ± 8.7% | 69.1 ± 5.5% | 86.1 ± 5.7% | 76.4 ± 18%
UGAUCCGACAUGUAAACCAAA | 46.9 ± 12% | 82.2 ± 9.4% | 76.6 ± 4.5% | 17.4 ± 3.1%
UUACCGAACAUGUAAACCAAA | 84.2 ± 10% | 64.9 ± 4.9% | 89.2 ± 2% | 100 ± 21%
UGAACGAACAUGUAAACCAAA | 90.5 ± 20% | 81.9 ± 10% | 98.8 ± 5.1% | 69.2 ± 12%
UAGCCAAACAUGUAAACCAAA | 97.9 ± 5.8% | 59.6 ± 2.8% | 69 ± 4.9% | 31.6 ± 4.8%
UUGGUCUACAUGUAAACCAAA | 77.6 ± 10% | 52 ± 3.4% | 82.9 ± 2.5% | 106 ± 11%
UGCUGUUACAUGUAAACCAAA | 50.5 ± 3.8% | 91.9 ± 13% | 66.1 ± 9% | 18.3 ± 6.8%
UAGUACUACAUGUAAACCAAA | 15.3 ± 0.38% | 35.9 ± 5.3% | 23.1 ± 1.8% | 72.4 ± 9%
UCACGAGACAUGUAAACCAAA | 94.4 ± 6.6% | 32.4 ± 5.5% | 70.9 ± 7.4% | 72.8 ± 6.5%

Sequence | cell viability (3LL) | cell viability (H460) | cell viability (HeyA8) | cell viability (M565)
UCCCACCACAUGUAAACCAAA | 38.1 ± 7.2% | 28.4 ± 0.71% | 51.1 ± 3.4% | 8.55 ± 4.1%
UGAACACACAUGUAAACCAAA | 63.5 ± 11% | 47.5 ± 5.5% | 38.5 ± 7.1% | 43.6 ± 8.9%
UCUCUUCACAUGUAAACCAAA | 79.2 ± 15% | 35.2 ± 1% | 20.9 ± 0.68% | 59.8 ± 9.8%
UAGCACGACAUGUAAACCAAA | 78.6 ± 13% | 58.2 ± 6.9% | 71.6 ± 12% | 48.7 ± 0.95%
UCGCCUAACAUGUAAACCAAA | 94.8 ± 10% | 83.7 ± 6.1% | 94.4 ± 1.5% | 73.2 ± 6.1%
UUCACCCACAUGUAAACCAAA | 34.9 ± 5.5% | 60.4 ± 8.4% | 67.3 ± 3.3% | 63.4 ± 12%
UUUGGGUACAUGUAAACCAAA | 22.5 ± 5.5% | 72.5 ± 1.6% | 91.6 ± 7% | 41 ± 8.5%
UAGUUGAACAUGUAAACCAAA | 79.6 ± 7.2% | 52 ± 11% | 31.5 ± 5.5% | 56.5 ± 6.3%
UCUUGGGACAUGUAAACCAAA | 95.8 ± 9.4% | 24.3 ± 5.2% | 9.26 ± 1.2% | 49.5 ± 6.7%
UCAUGAGACAUGUAAACCAAA | 86 ± 8.9% | 47.9 ± 0.82% | 74.8 ± 9.9% | 47.2 ± 13%
UUCCAAGACAUGUAAACCAAA | 113 ± 17% | 52.5 ± 5.5% | 99.9 ± 15% | 93.8 ± 3.6%
UUCGCCUACAUGUAAACCAAA | 40.6 ± 8.7% | 81.3 ± 20% | 82.3 ± 9.7% | 101 ± 14%
UCCCUUGACAUGUAAACCAAA | 104 ± 12% | 43 ± 2.8% | 75.5 ± 9.1% | 68.2 ± 10%
UGAUAUUACAUGUAAACCAAA | 65.1 ± 21% | 56.4 ± 7.8% | 47 ± 5.3% | 54.6 ± 4.5%
UGAUCGCACAUGUAAACCAAA | 26.3 ± 4.4% | 28.7 ± 1.1% | 35.3 ± 2.4% | 20.5 ± 6.8%
UAUCUCGACAUGUAAACCAAA | 102 ± 7.3% | 47.8 ± 5% | 93.3 ± 2.6% | 92.4 ± 26%
UCACACCACAUGUAAACCAAA | 38.2 ± 7.9% | 15.4 ± 1.1% | 37.1 ± 3.5% | 27.2 ± 1.9%
UACUAUAACAUGUAAACCAAA | 97 ± 9.4% | 68 ± 2.5% | 95.2 ± 5.6% | 82.8 ± 6%
UUAUGUGACAUGUAAACCAAA | 61.4 ± 9.4% | 38.1 ± 2.8% | 41.3 ± 9.1% | 65.2 ± 24%
UCAUUGUACAUGUAAACCAAA | 75.1 ± 11% | 34.2 ± 0.89% | 49.5 ± 4.4% | 46.6 ± 10%
UUCGGACACAUGUAAACCAAA | 10.8 ± 5.4% | 39.8 ± 3.5% | 51.1 ± 4.5% | 41.6 ± 4.7%
UAUGAACACAUGUAAACCAAA | 94.9 ± 8.7% | 76.2 ± 15% | 94.7 ± 4.6% | 115 ± 19%
